Data reported in article PMC4336329 (PLoS ONE, 2015).
Screen size: about 310,000 compounds; about 2,200 (0.71%) showed an effect of 50% or more. Effects have a minus sign here. The list shows a part of the results.

Each compound was assayed against human ether-à-go-go-related gene (hERG) potassium channel (human, UniProt Q12809) (assay: primary screen, population patch clamp on CHO cells stably expressing hERG).
human ether-à-go-go-related gene (hERG) potassium channel, sequence (Q12809 whole entry, looked up): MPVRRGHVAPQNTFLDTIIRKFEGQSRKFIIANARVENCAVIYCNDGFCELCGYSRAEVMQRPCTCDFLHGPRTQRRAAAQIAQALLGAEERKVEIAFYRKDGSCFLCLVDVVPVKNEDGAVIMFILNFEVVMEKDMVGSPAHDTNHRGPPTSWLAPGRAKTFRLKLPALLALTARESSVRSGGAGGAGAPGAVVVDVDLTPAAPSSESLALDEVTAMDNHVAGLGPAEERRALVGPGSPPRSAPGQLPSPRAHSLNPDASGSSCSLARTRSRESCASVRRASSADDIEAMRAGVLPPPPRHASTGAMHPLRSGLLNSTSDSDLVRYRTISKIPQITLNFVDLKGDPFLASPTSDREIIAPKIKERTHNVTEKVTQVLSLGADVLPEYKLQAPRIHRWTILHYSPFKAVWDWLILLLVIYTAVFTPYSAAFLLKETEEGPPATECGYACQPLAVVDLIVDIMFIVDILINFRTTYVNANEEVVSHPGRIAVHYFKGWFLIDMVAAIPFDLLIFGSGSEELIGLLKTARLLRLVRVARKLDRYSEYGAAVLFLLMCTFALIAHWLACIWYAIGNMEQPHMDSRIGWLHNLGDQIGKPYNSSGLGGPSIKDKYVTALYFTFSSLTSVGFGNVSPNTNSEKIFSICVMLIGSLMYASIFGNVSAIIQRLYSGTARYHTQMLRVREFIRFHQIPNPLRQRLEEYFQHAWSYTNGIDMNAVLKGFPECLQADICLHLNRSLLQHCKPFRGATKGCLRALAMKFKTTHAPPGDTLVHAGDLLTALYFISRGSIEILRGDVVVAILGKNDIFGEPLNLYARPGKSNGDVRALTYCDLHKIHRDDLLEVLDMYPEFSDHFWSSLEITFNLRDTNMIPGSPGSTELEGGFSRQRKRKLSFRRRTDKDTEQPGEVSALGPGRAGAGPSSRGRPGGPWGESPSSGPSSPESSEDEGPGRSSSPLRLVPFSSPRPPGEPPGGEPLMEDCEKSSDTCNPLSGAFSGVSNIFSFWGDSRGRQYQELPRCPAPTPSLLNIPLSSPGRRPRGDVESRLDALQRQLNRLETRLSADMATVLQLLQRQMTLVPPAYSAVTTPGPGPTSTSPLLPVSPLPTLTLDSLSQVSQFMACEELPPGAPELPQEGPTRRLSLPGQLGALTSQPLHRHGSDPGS

SMILES	hERG current change (%, negative = inhibition) at 1uM
N#Cc1ccccc1S(=O)(=O)N1CCN(C(=O)C2COc3ccccc3O2)CC1 (centres unmarked)	-1.92%
C#Cc1ccc([C@@H]2C=C(C(=O)NC3CC3)O[C@H](OCc3ccc(CO)cc3)C2)cc1	10.1%
O=C(NCc1ccccn1)Nc1ccc(F)c(Cl)c1	-12.9%
O=C(Nc1cccc(S(=O)(=O)N2CCOCC2)c1)c1ccccn1	3.86%
COc1ccc(OC)c(-c2csc(NC(=O)C3c4ccccc4Oc4ccccc43)n2)c1	0.107%
Cc1ccccc1NS(=O)(=O)c1ccc(C(=O)NCCCN2CCOCC2)cc1	17.5%
O=C(CSc1nc2sc3c(c2c(=O)n1-c1ccccc1)CCCC3)NCc1ccco1	14.3%
Cc1ccc(OCC(=O)N2CCCCCCC2)cc1	9.55%
COc1cc(OC)cc(C(=O)NCC(=O)NC(C)CCc2ccccc2)c1 (centres unmarked)	4.24%
CCCN1Cc2cccc(C(=O)NCCCOC(C)C)c2C1=O	7.23%
COc1ccc(/C=N/NC(=O)C(=O)N2CCCC2)cc1OC	3.19%
Cc1ccc(C(=O)NC2c3ccccc3-c3ccccc32)cc1	16.7%
CCOc1ccc(-c2cccc(NC(=O)COc3ccccc3)c2)nn1	-5.13%
CCN1CCN(S(=O)(=O)c2ccc(C(=O)Nc3ccccc3)cc2)CC1	3.38%
Cn1c(N)c(N2CCN(c3ccccc3)CC2)c(=O)[nH]c1=O	18.9%
CN(C)c1ccc(/C=C2\SC(=O)N(CCc3nnc(N)s3)C2=O)cc1	-1.13%
CC(O)CNC12CC3CC(CC(C3)C1)C2 (centres unmarked)	8.94%
CCCCC(=O)Nc1ccc(NC(=S)NC(=O)c2ccco2)cc1OC	12.7%
COc1cccc(NC(=O)CN(C)C(=O)CN2C(=O)c3ccc([N+](=O)[O-])cc3C2=O)c1	11%
N#Cc1c(N)c(C(=O)c2ccccc2)n2c1CCC2	13.3%
CCOC(=O)c1c(NC(=O)Cn2nc(C(F)(F)F)cc2C)sc(C)c1C	-3.96%
Cc1ccc(CNC(=O)CN(C(=O)N2CCN(C)CC2)S(=O)(=O)c2ccc(C)cc2)cc1	17%
Cc1cccc(OCCn2nnc3ccccc32)c1C	11.8%

SMILES	hERG current change (%, negative = inhibition) at 1uM
O=C(Nc1ccc2nc3n(c(=O)c2c1)CCCC3)c1ccc(Cl)nc1	10.7%
O=C(CSc1nnnn1-c1ccccc1)Nc1ncc(Cc2ccccc2Cl)s1	11.8%
COC(=O)c1c(C)oc(C)c1S(=O)(=O)NCc1ccc(Cl)cc1Cl	-1.2%
Oc1sc(C=Nc2ccc(F)cc2)c2ccccc12	19.5%
CCCCCN(C(=O)CCC(=O)OCC(=O)c1ccc(C(C)(C)C)cc1)c1c(N)n(CCCC)c(=O)[nH]c1=O	4.2%
COC(=O)c1cc(OC)c(OC)cc1NC(=S)N1CCN(C/C=C/c2ccccc2)CC1	5.63%
COC(=O)C1=C(c2ccccc2)C[C@@H]2CC[C@H]1N2C(=O)N1CCC(O)CC1	10.3%
CCOC(=O)c1cnc2ccc(C)cc2c1Sc1ccccc1C(=O)OC	4.32%
CCCc1nnc(NC(=O)CSc2nnc(-c3ccco3)n2C)s1	15%
Cc1cc(C)n(C(=O)CNc2cccc(Cl)c2C)n1	10.3%
O=C1Nc2ccccc2S/C1=C/NCc1ccccc1Cl	7.47%
Cn1cc([N+](=O)[O-])c(C(=O)NNC(=O)c2ccc([N+](=O)[O-])cc2)n1	17.7%
COc1ccc(-n2ncc3c(=O)n(CC(=O)N(C(C)C)C(C)C)cnc32)cc1	8.56%
Cc1ccc(S(=O)(=O)N(Cc2cccc(F)c2)C(=O)N2CCN(C)CC2)cc1	23.3%
CCSc1nc(N2CCOCC2)c2c(c1C#N)CCCC2	-4.42%
NC(=O)C1(C(N)=O)OC1c1ccccc1 (centres unmarked)	11.6%
O=C(CN1CCN(Cc2ccc(Cl)cc2)C1=O)NCCN1CCCC1	13.3%
CN1C(C(=O)NCc2cccc(Br)c2)CC2Cn3c(nc4cc(Cl)c(Cl)cc43)C21 (centres unmarked)	4.64%
C=CCSC1=C(C#N)C(c2ccccc2OCC)CC(=O)N1 (centres unmarked)	12%
C=CCN(C(=O)Nc1ccccc1)C1CC(=O)N(c2ccc(OC)cc2)C1=O (centres unmarked)	-1.23%
O=C1CC(N(C(=O)c2ccco2)c2cccc(Cl)c2)C(=O)N1c1cccc(Cl)c1 (centres unmarked)	4.49%
Cc1nc(NC(C)C(=O)O)c2nc(C)oc2n1 (centres unmarked)	-10.4%
CCOC(=O)N1CCN(C(=O)COC(=O)CSc2ccc([N+](=O)[O-])cc2)CC1	8.1%

SMILES	hERG current change (%, negative = inhibition) at 1uM
CC(C)CCOP(=O)(c1ccc(N(C)C)cc1)C(O)c1ccccc1F (centres unmarked)	4.4%
COc1cc(C(=O)Nc2cccc3cccnc23)cc(OC)c1OC	-3.57%
CN(C1CCCCC1)S(=O)(=O)c1ccc(C(=O)N2CCN(c3nc4ccccc4s3)CC2)cc1	17.8%
O=C(O)c1ccc2c(c1)N(Cc1ccccc1)C(=O)c1ccccc1S2=O (centres unmarked)	21.7%
O=C(CSc1ccc(-c2ccccn2)nn1)NC1CCCCC1	8.5%
CCc1ccc(OCC(=O)Nc2ccc(S(=O)(=O)N3CCOCC3)cc2)cc1	-2.24%
CN1CCc2nc3ccccc3c(C(=O)OCC(=O)N(CCC#N)c3ccccc3)c2C1	8.4%
O=C(N/N=C/c1sc2ccccc2c1O)c1cccc2ccccc12	10.4%
O=C(CN1CCCCCCC1)NC(=O)NC1CCCCC1	15.5%
Cc1cccc(OC(=O)CCN2C(=O)C3C4C=CC(C5CC45)C3C2=O)c1C (centres unmarked)	11.9%
Cc1[nH]c2ccccc2c1C(=O)C(=O)N1CC(C)OC(C)C1 (centres unmarked)	14.4%
COc1ccc(CCN(Cc2ccccn2)C(=S)Nc2ccccc2Cl)cc1OC	0.868%
COc1cc2c(cc1OC)CN(c1nc(CN3CCCC3)nc3sc(C)c(C)c13)CC2	-22.9%
Cc1ccc(S(=O)(=O)/N=C2/NC(=O)/C(=C/c3ccncc3)S2)cc1	21.1%
COc1cc(CO)c(Br)cc1OCC(N)=O	12.7%
Cc1noc(C)c1COC(=O)c1ccccc1NC(=O)c1ccco1	-4.29%
CC(C)C(=O)NC(=S)NCC(=O)c1ccccc1	1.31%
CCc1ccc(NC(=O)CCc2ccc(CC)o2)cc1	19.3%
CCOC(=O)C1=C(C)C(c2ccc(OC)cc2)NC(=S)N1 (centres unmarked)	1.33%
Cc1cc(Cl)c(OCCN2C(=O)NC(C)(C)C2=O)c(Br)c1	5.92%
COc1ccccc1NC(=O)C1CCCN(C(=O)Nc2ccc(F)cc2)C1 (centres unmarked)	12%
CS(=O)(=O)N1CCC(C(=O)Nc2ccc(C(F)(F)F)cc2)CC1	18.9%
Cc1ccc2sc(N(CCCN(C)C)C(=O)c3ccc(S(=O)(=O)N4CCc5ccccc5C4)cc3)nc2c1C.Cl	13.4%

SMILES	hERG current change (%, negative = inhibition) at 1uM
Cc1c(NC(=O)C(C)OC(=O)c2cccc([N+](=O)[O-])c2)c(=O)n(-c2ccccc2)n1C (centres unmarked)	6.49%
Cc1ccc(NS(=O)(=O)c2cccc(C(=O)NN3CCOCC3)c2)cc1	22.4%
CCC(C)N(C(=O)COC(=O)c1ccc(=O)n(Cc2ccccc2)n1)C1CCS(=O)(=O)C1 (centres unmarked)	5.04%
COc1ccc(CCNC(=O)CCCn2nc(C)n3ccnc3c2=O)cc1OC	-6.5%
CC(C)(O)C(=O)NNC(=S)Nc1cccc(C(F)(F)F)c1	-6.99%
Nc1nc(CSc2ncccn2)nc(Nc2ccccc2)n1	5.26%
COc1cccc(CNC(=O)Cc2nc3nc(C)cc(C)n3n2)c1	14.5%
O=C1OCCC1Sc1ncnc2sccc12 (centres unmarked)	-4.95%
CC(Cl)C(=O)Nc1c2c(nn1-c1ccccc1)CSC2 (centres unmarked)	7.33%
CCOC(=O)C1=NN(c2ccccc2)C2=NC(C)=C(C(=O)OC)C(c3cccs3)N12 (centres unmarked)	-2.54%
Cc1cc(C)cc(C(=O)NC(=S)Nc2ccc3[nH]c(=O)[nH]c3c2)c1	16.5%
COc1ccc(S(=O)(=O)Nc2cccnc2)c(Cl)c1Cl	10.7%
O=C([C@H](O)c1ccccc1)N1CCC[C@H]1CO	3.94%
COC(=O)CSC1=NN1c1cc(C)nc(N)n1	6.97%
COc1ccc(CCNC(=O)C2CCN(C(=O)c3ccc(OC)c(OC)c3)CC2)cc1	13.3%
Cc1cc(=O)oc2cc(OCC(=O)N3CCc4ccccc4C3)ccc12	-2.54%
O=C1CNC(c2ccccc2Cl)c2cc(Br)ccc2N1 (centres unmarked)	14.2%
CCOc1cccc(/C=N/N2C(C)CCCC2C)c1O (centres unmarked)	2.07%
O=C(N/N=C\c1cn[nH]c1-c1ccccc1)c1cccnc1	6.4%
CC(C)CN(C(=O)c1cc(Cl)nc2ccccc12)c1c(N)n(Cc2ccccc2)c(=O)[nH]c1=O	4.31%
